Measurements reported in the supplement of paper PMC10369915.
This is one part of the list. Cut-off read from the data, not from the text of the source: active = 3.2 or more and inactive = the rest. The signal is at background level for most entries.

Molecular target: SHP2 C-SH2 domain E139D
Assay: enrichment score (SH2-bound / input frequency) (ratio); bacterial display of known human phosphotyrosine sites (pTyr-Var adds point mutants) read by sequencing; higher = stronger binding; tyrosines were phosphorylated by kinases first
Details: peptide library: Human pTyr
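Note: displayed peptides selected on beads carrying the immobilized SH2 domain, with library peptides lacking any tyrosine serving as negative controls.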

Enrichment score, inactive:
TILTEVNYEVSNKDD [CASP8_HUMAN_448] 0.773
DDYDAGRYSPRLLTA [CATIN_HUMAN_559] 0.537
DTRDNVYYYDEEGGG [CADH1_HUMAN_754] 0.758
GLITTLHYPAPKRNK [ABL1_HUMAN_215] 0.926
EENADDSYEPPPVEQ [BLNK_HUMAN_96] 0.983
YDKDRSGYIDEHELD [CALB2_HUMAN_214] 0.966
SDDFDSDYENPDEHS [BLNK_HUMAN_72] 1.28
ALEETKAYTTQSLAS [ABI1_HUMAN_53] 0.503
EEPAPLSYDSRPRAE [ZO1_HUMAN_1140_YA] 0.732
KMAPFATFSFWAQCI [NegativeControl08_Phe] 1.81
DGQEAPIYELTSQFT [CASP8_HUMAN_334] 0.88
TVHKLSAYEADFERG [BTK_HUMAN_40_YA] 1.13
TASDGKLYVSSESRF [ABL1_HUMAN_185] 0.644
GQLTFLNAGFMTHNA [NegativeControl01_Ala] 1.4
EGEEDTEYMTPSSRP [CBL_HUMAN_700] 0.991
SVHDAFEFCPEFWDK [NegativeControl04_Phe] 1.13
IREQGNIYKPNNKAM [CAV1_HUMAN_25] 0.922
ISFLQGNYELLPGNQ [BORG2_HUMAN_63] 0.763

Molecular target: SHP2 C-SH2 domain wild-type
Assay: as above
Details: peptide library: Human pTyr

Enrichment score, inactive:
TILTEVNYEVSNKDD [CASP8_HUMAN_448] 0.69
DDYDAGRYSPRLLTA [CATIN_HUMAN_559] 0.418
DTRDNVYYYDEEGGG [CADH1_HUMAN_754] 0.971
GLITTLHYPAPKRNK [ABL1_HUMAN_215] 0.961
EENADDSYEPPPVEQ [BLNK_HUMAN_96] 0.81
YDKDRSGYIDEHELD [CALB2_HUMAN_214] 0.757
SDDFDSDYENPDEHS [BLNK_HUMAN_72] 1.28
ALEETKAYTTQSLAS [ABI1_HUMAN_53] 0.569
EEPAPLSYDSRPRAE [ZO1_HUMAN_1140_YA] 0.588
KMAPFATFSFWAQCI [NegativeControl08_Phe] 1.46
DGQEAPIYELTSQFT [CASP8_HUMAN_334] 0.606
TVHKLSAYEADFERG [BTK_HUMAN_40_YA] 0.891
TASDGKLYVSSESRF [ABL1_HUMAN_185] 0.527
GQLTFLNAGFMTHNA [NegativeControl01_Ala] 0.959
EGEEDTEYMTPSSRP [CBL_HUMAN_700] 1.01
SVHDAFEFCPEFWDK [NegativeControl04_Phe] 1.06
IREQGNIYKPNNKAM [CAV1_HUMAN_25] 1.01
ISFLQGNYELLPGNQ [BORG2_HUMAN_63] 0.708

Molecular target: SHP2 N-SH2 domain L43F
Assay: as above
Details: peptide library: Human pTyr

Enrichment score, inactive:
TILTEVNYEVSNKDD [CASP8_HUMAN_448] 0.631
DDYDAGRYSPRLLTA [CATIN_HUMAN_559] 0.519
DTRDNVYYYDEEGGG [CADH1_HUMAN_754] 1.19
GLITTLHYPAPKRNK [ABL1_HUMAN_215] 0.893
EENADDSYEPPPVEQ [BLNK_HUMAN_96] 0.76
YDKDRSGYIDEHELD [CALB2_HUMAN_214] 0.91
SDDFDSDYENPDEHS [BLNK_HUMAN_72] 1.42
ALEETKAYTTQSLAS [ABI1_HUMAN_53] 0.552
EEPAPLSYDSRPRAE [ZO1_HUMAN_1140_YA] 0.84
KMAPFATFSFWAQCI [NegativeControl08_Phe] 1.55
DGQEAPIYELTSQFT [CASP8_HUMAN_334] 0.724
TVHKLSAYEADFERG [BTK_HUMAN_40_YA] 0.646
TASDGKLYVSSESRF [ABL1_HUMAN_185] 0.697
GQLTFLNAGFMTHNA [NegativeControl01_Ala] 1.31
EGEEDTEYMTPSSRP [CBL_HUMAN_700] 0.901
SVHDAFEFCPEFWDK [NegativeControl04_Phe] 1.33
IREQGNIYKPNNKAM [CAV1_HUMAN_25] 0.918
ISFLQGNYELLPGNQ [BORG2_HUMAN_63] 0.78

Molecular target: SHP2 N-SH2 domain T42A
Assay: as above
Details: peptide library: Human pTyr

Enrichment score, inactive:
TILTEVNYEVSNKDD [CASP8_HUMAN_448] 0.789
DDYDAGRYSPRLLTA [CATIN_HUMAN_559] 0.412
DTRDNVYYYDEEGGG [CADH1_HUMAN_754] 0.915
GLITTLHYPAPKRNK [ABL1_HUMAN_215] 0.867
EENADDSYEPPPVEQ [BLNK_HUMAN_96] 0.773
YDKDRSGYIDEHELD [CALB2_HUMAN_214] 0.906
SDDFDSDYENPDEHS [BLNK_HUMAN_72] 1.56
ALEETKAYTTQSLAS [ABI1_HUMAN_53] 0.564
EEPAPLSYDSRPRAE [ZO1_HUMAN_1140_YA] 0.684
KMAPFATFSFWAQCI [NegativeControl08_Phe] 1.52
DGQEAPIYELTSQFT [CASP8_HUMAN_334] 0.809
TVHKLSAYEADFERG [BTK_HUMAN_40_YA] 0.796
TASDGKLYVSSESRF [ABL1_HUMAN_185] 0.733
GQLTFLNAGFMTHNA [NegativeControl01_Ala] 0.952
EGEEDTEYMTPSSRP [CBL_HUMAN_700] 0.859
SVHDAFEFCPEFWDK [NegativeControl04_Phe] 0.908
IREQGNIYKPNNKAM [CAV1_HUMAN_25] 0.915
ISFLQGNYELLPGNQ [BORG2_HUMAN_63] 0.697

Molecular target: SHP2 N-SH2 domain T52S
Assay: as above
Details: peptide library: Human pTyr

Enrichment score, inactive:
TILTEVNYEVSNKDD [CASP8_HUMAN_448] 0.769
DDYDAGRYSPRLLTA [CATIN_HUMAN_559] 0.421
DTRDNVYYYDEEGGG [CADH1_HUMAN_754] 0.83
GLITTLHYPAPKRNK [ABL1_HUMAN_215] 0.932
EENADDSYEPPPVEQ [BLNK_HUMAN_96] 0.92
YDKDRSGYIDEHELD [CALB2_HUMAN_214] 0.985
SDDFDSDYENPDEHS [BLNK_HUMAN_72] 1.17
ALEETKAYTTQSLAS [ABI1_HUMAN_53] 0.549
EEPAPLSYDSRPRAE [ZO1_HUMAN_1140_YA] 0.772
KMAPFATFSFWAQCI [NegativeControl08_Phe] 2.24
DGQEAPIYELTSQFT [CASP8_HUMAN_334] 0.834
TVHKLSAYEADFERG [BTK_HUMAN_40_YA] 0.682
TASDGKLYVSSESRF [ABL1_HUMAN_185] 0.662
GQLTFLNAGFMTHNA [NegativeControl01_Ala] 1.25
EGEEDTEYMTPSSRP [CBL_HUMAN_700] 0.822
SVHDAFEFCPEFWDK [NegativeControl04_Phe] 1.06
IREQGNIYKPNNKAM [CAV1_HUMAN_25] 1.08
ISFLQGNYELLPGNQ [BORG2_HUMAN_63] 0.681

Molecular target: SHP2 N-SH2 domain wild-type
Assay: as above
Details: peptide library: Human pTyr

Enrichment score, inactive:
TILTEVNYEVSNKDD [CASP8_HUMAN_448] 1.18
DDYDAGRYSPRLLTA [CATIN_HUMAN_559] 0.485
DTRDNVYYYDEEGGG [CADH1_HUMAN_754] 0.842
GLITTLHYPAPKRNK [ABL1_HUMAN_215] 0.756
EENADDSYEPPPVEQ [BLNK_HUMAN_96] 0.666
YDKDRSGYIDEHELD [CALB2_HUMAN_214] 0.977
SDDFDSDYENPDEHS [BLNK_HUMAN_72] 1.4
ALEETKAYTTQSLAS [ABI1_HUMAN_53] 0.642
EEPAPLSYDSRPRAE [ZO1_HUMAN_1140_YA] 0.719
KMAPFATFSFWAQCI [NegativeControl08_Phe] 2.32
DGQEAPIYELTSQFT [CASP8_HUMAN_334] 0.742
TVHKLSAYEADFERG [BTK_HUMAN_40_YA] 0.691
TASDGKLYVSSESRF [ABL1_HUMAN_185] 0.56
GQLTFLNAGFMTHNA [NegativeControl01_Ala] 0.94
EGEEDTEYMTPSSRP [CBL_HUMAN_700] 1.01
SVHDAFEFCPEFWDK [NegativeControl04_Phe] 1.36
IREQGNIYKPNNKAM [CAV1_HUMAN_25] 1.21
ISFLQGNYELLPGNQ [BORG2_HUMAN_63] 0.684
